Laboratory results: PubChem BioAssay AID493005 (National Center for Advancing Translational Sciences (NCATS), 2010)
The whole screen tested about 340,000 compounds, of which fewer than 10 were called active. The inconclusive results got no clear call from the source; some entries with a clear call stand among them for comparison. Calls come from the whole dose curve; as a rule, active = well fitted inhibition curve with a large enough effect in the main read-out, with a control signal flat (not every such curve was filed as active); inconclusive = small, poorly fitted or top-dose-only effect, or effect the other way, or a change in a side signal; inactive = no such curve, though single readings can be large or run the other way. Potencies beside an inconclusive call are fits to weak or partial responses and may not hold up. A note “side channel” means that the fit belongs to a control or component signal, not to the main read-out.

target: Tumor susceptibility gene 101 protein (Homo sapiens) (UniProt Q99816); assay: qHTS Assay for Iinhibitors of HIV-1 Budding by Blocking the Interaction of PTAP/TSG101; conditions: Fluorescence polarization, FITC-PTAP peptide / Tsg101 binding; activity change, negative = inhibition: at 115 µM (top of the series); for activity change, negative = inhibition: % of control where 0% means no effect
How it was run: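 Fluorescence polarization binding of Tsg101 binding domain (10 uM final) to FITC-labeled PTAP peptide (50 nM final) in HEPES pH 7.5 buffer with NaCl, Tween 20, EDTA, TCEP. Compounds added before peptide; binding 20 min at RT.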
Potency is the fitted concentration of half-maximal effect; tags give direction and shape of the fitted curve or compound fluorescence and quenching.

Sequence of UniProt Q99816 (Q99816 whole entry, looked up, the tested form may be a part): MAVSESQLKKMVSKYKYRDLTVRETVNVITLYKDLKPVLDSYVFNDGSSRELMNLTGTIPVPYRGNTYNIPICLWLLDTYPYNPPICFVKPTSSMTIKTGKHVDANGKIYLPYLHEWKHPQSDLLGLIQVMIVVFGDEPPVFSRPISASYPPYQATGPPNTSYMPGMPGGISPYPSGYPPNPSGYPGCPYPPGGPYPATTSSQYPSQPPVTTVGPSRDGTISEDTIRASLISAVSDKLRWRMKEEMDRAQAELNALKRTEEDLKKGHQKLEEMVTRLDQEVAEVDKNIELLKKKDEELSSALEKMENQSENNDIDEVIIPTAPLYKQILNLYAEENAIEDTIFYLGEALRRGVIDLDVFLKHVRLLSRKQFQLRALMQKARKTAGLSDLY

Compound	activity change, negative = inhibition	Potency
COc1ccc(-c2nn(-c3ccccc3)cc2N)cc1	inactive: -6.09%	–
O=C1S/C(=C\c2ccc(N3CCOCC3)o2)C(=O)N1c1ccccc1	–	inconclusive: 14.1 µM [fluorescent, side channel, full curve, poor fit]
CCN(CC)C(=O)[C@H]1CC(CC(=O)NCc2cccc(C(F)(F)F)c2)C(=O)N2CCc3c([nH]c4ccc(OC)cc34)[C@]12C (some centres not stated)	–	inconclusive: 89.1 µM [falling, partial curve, poor fit]
COCc1cc(C)nc(SCC(=O)Nc2ccccc2N2CCOCC2)c1C#N	inactive: -4.35%	–
NC(=O)c1c(NC(=O)c2ccccc2)sc2c1CCC2	inactive: 1.23%	–
N#Cc1c(N)oc(-c2ccco2)c1-c1ccco1	inactive: -0.764%	–
CN(C)c1ccc(/C=N/N(CCC(=O)NC(C)(C)C)C2=NS(=O)(=O)c3ccccc32)cc1	–	inconclusive: 89.1 µM [fluorescent, side channel, single point]
Cc1cc2n(n1)C(c1ccccc1)Nc1ccccc1-2 (configuration not stated)	inactive: -1.11%	–
Cc1[nH]c2ccccc2c1/C=C/c1cc[n+](C)cc1	–	inconclusive: 56.2 µM [fluorescent, side channel, partial curve, poor fit]
CC(=O)N(/N=C1/C(=O)Nc2ccccc21)c1ccccc1	–	inconclusive: 79.4 µM [fluorescent, side channel, single point]
Nc1c(C(=O)NC2CC2)sc2nc3c(c(-c4ccco4)c12)CC/C3=C/c1ccco1	–	inconclusive: 25.1 µM [fluorescent, side channel, full curve, poor fit]
Cc1ccc(/C=C/C(=O)Nc2ccc(S(=O)(=O)Nc3onc(C)c3C)cc2)cc1	–	inconclusive: 89.1 µM [fluorescent, side channel, single point]
CC(C)/C=C1\CC/C(=C\c2ccc(N(C)C)cc2)C1=O	–	inconclusive: 14.1 µM [fluorescent, side channel, full curve]
O=C(Nc1ccc(Br)cc1Cl)c1ccc(OCC2CCCO2)cc1 (configuration not stated)	inactive: -3.64%	–
O=C(CN(c1ccc(Cl)cc1)S(=O)(=O)c1ccccc1)N1CCN(c2ccccc2)CC1	–	inconclusive: 89.1 µM [quencher, side channel, partial curve, poor fit]
Cc1cc2nc3c(=O)n(CCc4ccccc4)c(=O)[nH]c3nc2cc1N	–	inconclusive: 14.1 µM [fluorescent, side channel, full curve, poor fit]
CC1CN(S(=O)(=O)c2ccc(C(=O)NCCCn3ccnc3)cc2)CC(C)O1 (configuration not stated)	inactive: 0.837%	–
O=C(NC1CC1)c1cccc2c1C(=O)c1ccc(N3CCC(Cc4ccccc4)CC3)cc1S2(=O)=O	–	inconclusive: 79.4 µM [fluorescent, side channel, partial curve, poor fit]
CCn1c(O)c(/C=N/N=C/c2ccc(OC)cc2)c2cc(C3=NNC(=O)CC3)ccc21	–	inconclusive: 56.2 µM [fluorescent, side channel, partial curve, poor fit]

Compound	activity change, negative = inhibition	Potency
Cc1cc2nc3c(=O)n(Cc4ccccc4)c(=O)[nH]c3nc2cc1N	–	inconclusive: 25.1 µM [fluorescent, side channel, full curve]
N#C/C(=C\C=C\c1ccccc1)c1nc(-c2ccc3c(c2)OCO3)cs1	–	inconclusive: 79.4 µM [fluorescent, side channel, partial curve]
COc1ccc(-c2c(C#N)c(N)nc3sc(C(=O)c4ccc(C)cc4)c(N)c23)cc1	–	inconclusive: 50.1 µM [fluorescent, side channel, partial curve, poor fit]
CCN1C(=O)/C(=C/c2ccc(N3CCCC3)cc2)NC1=S	–	inconclusive: 15.8 µM [fluorescent, side channel, full curve, poor fit]
CC(=Nc1ccc(O)cc1)c1sc2ccccc2c1O	–	inconclusive: 50.1 µM [fluorescent, side channel, partial curve, poor fit]
Cc1ccc(OC(=O)c2ccc3nc(C)sc3c2)cc1	–	inconclusive: 100 µM [fluorescent, side channel, partial curve]
CC(=O)N1c2ccc(S(=O)(=O)N3c4ccccc4CC3C)cc2CC1C (configuration not stated)	inactive: -0.35%	–
Cn1c(-c2ccccn2)[n+](C)c2ccccc21	inactive: -3.09%	–
O=C(O)c1cc(Cl)ccc1-c1ccc(/C=C/c2cc(C(F)(F)F)[nH]c(=O)n2)o1	–	inconclusive: 50.1 µM [fluorescent, side channel, partial curve, poor fit]
CC(=O)Oc1cccc2c1C(=O)c1c(OC(C)=O)cc(C(=O)O)cc1C2=O	inactive: -12.9%	–
CSc1nnc(-c2cc(-c3ccc(C)cc3)nc3ccccc23)o1	inactive: -9.58%	–
CCN(CC)c1ccc2c(c1)OC(N)=C(C#N)C2c1cccnc1 (configuration not stated)	–	inconclusive: 56.2 µM [fluorescent, side channel, partial curve, poor fit]
CN1CCS/C1=C\C=C1/SC(=S)N(CC(=O)O)C1=O	–	inconclusive: 50.1 µM [fluorescent, side channel, partial curve]
Cc1cccc2c(=O)n3c(cc12)-c1[nH]c2ccccc2c1CC3	–	inconclusive: 50.1 µM [fluorescent, side channel, partial curve, poor fit]
COc1cc([N+](=O)[O-])ccc1N/C=C/C(=O)c1cccs1	–	inconclusive: 50.1 µM [fluorescent, side channel, partial curve, poor fit]
CC1=CC(=O)[C@@H](OC(=O)Nc2ccc(C)cc2)[C@@H](c2ccccc2Br)N1C	–	inconclusive: 89.1 µM [fluorescent, side channel, single point]
CN(C)c1ccc(/C=C/C(=O)c2cccnc2)cc1	–	inconclusive: 56.2 µM [fluorescent, side channel, partial curve, poor fit]
C/C=C/c1ccc(OCCOCCOc2cccc3cccnc23)c(OC)c1	–	inconclusive: 35.5 µM [fluorescent, side channel, single point]
Cc1ccnc(Nc2nc(-c3sc(C)nc3C)cs2)c1	inactive: -0.25%	–

Compound	activity change, negative = inhibition	Potency
COc1cccc(C(=O)CSc2nnc(CNS(C)(=O)=O)n2-c2ccc(C)cc2)c1	inactive: -0.733%	–
CC1CC(C)CN(C(=O)c2ccc3c(c2NCCO)C(=O)c2ccccc2C3=O)C1 (configuration not stated)	–	inconclusive: 50.1 µM [falling, partial curve, poor fit]
COc1ccc(NC(=O)CSc2ccc3c4c(cccc24)C(=O)c2ccccc2-3)cc1	–	inconclusive: 50.1 µM [fluorescent, side channel, partial curve]
Cc1ccc(NC(=O)CN2C(=O)S/C(=C\c3ccc(-c4cccc(C(=O)O)c4C)o3)C2=O)cc1C	–	inconclusive: 79.4 µM [fluorescent, side channel, partial curve, poor fit]
O=C1/C(=N\S(=O)(=O)c2cccs2)C([n+]2ccccc2)=C([O-])c2ccccc21	–	inconclusive: 79.4 µM [falling, single point]
N#C/C(=C\c1ccc(C(=O)O)cc1)c1nc2sc3c(c2c(=O)[nH]1)CCCC3	–	inconclusive: 50.1 µM [fluorescent, side channel, partial curve, poor fit]
CN1CCN(c2nc3ccccc3nc2NS(=O)(=O)c2ccc(Br)cc2)CC1	inactive: -8.97%	–
CN(C)c1ccc(/C=C2\NC(=S)N(Cc3ccccc3)C2=O)cc1	–	inconclusive: 14.1 µM [fluorescent, side channel, full curve, poor fit]
CCCCn1c(N)c(N(CC(C)C)C(=O)Cc2ccc(S(=O)(=O)N3CCOCC3)s2)c(=O)[nH]c1=O	–	inconclusive: 50.1 µM [fluorescent, side channel, partial curve, poor fit]
CC(C)c1ccc(/C=C/C(=O)Nc2ccc(CN3CCOCC3)cc2)cc1	inactive: 0.712%	–
Cc1ccc(S(=O)(=O)CCSc2nc(C)cc(C(F)(F)F)c2C#N)cc1	–	inconclusive: 79.4 µM [fluorescent, side channel, partial curve, poor fit]
N#C/C(=C\c1ccco1)c1nc2ccccc2s1	–	inconclusive: 79.4 µM [fluorescent, side channel, single point]
CC(C)(C)N(Cc1ccccc1)C(=O)c1ccc(Br)o1	inactive: 0.149%	–
CC1(c2ccc(OCC#N)cc2)C=C(c2ccc(OCC#N)cc2)n2nc(C(F)(F)F)nc2N1 (configuration not stated)	inactive: -6.71%	–
O=C(NCc1cccc(F)c1)c1cccc2c1C(=O)c1ccc(N3CCC(Cc4ccccc4)CC3)cc1S2(=O)=O	–	inconclusive: 56.2 µM [fluorescent, side channel, partial curve, poor fit]
O=C1c2cccc3c(O)ccc(c23)C(=O)N1Cc1ccco1	–	inconclusive: 56.2 µM [fluorescent, side channel, partial curve]
COc1ccc(C2C(C(=O)c3cccs3)=C(O)C(=O)N2c2nncs2)cc1 (configuration not stated)	–	inconclusive: 56.2 µM [fluorescent, side channel, partial curve, poor fit]
N#C/C(=C\c1ccc(N2CCOCC2)o1)c1nc2ccccc2[nH]1	–	inconclusive: 35.5 µM [fluorescent, side channel, partial curve]
CCN1CCN(C2=CC3=CC(=C(C#N)C#N)CCC3CC2)CC1 (configuration not stated)	–	inconclusive: 50.1 µM [fluorescent, side channel, partial curve]
